111 molecules from PubChem BioAssay AID488969 (Vanderbilt High Throughput Screening Facility, 2010) can be followed below.

Whole data set: some 110,000 compounds, median “z-score” near -0.1, cut for the highest 2% near 2. Some of the results follow. The source made the active and inactive calls.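 How the source made its calls: active means z-score in the third read window above 3 or below -3; inactive means the rest.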

In this assay the target is Metabotropic glutamate receptor 8 (Rattus norvegicus) (UniProt P70579). As to the kind of experiment: rat mGluR8 modulators via GIRK flux, primary screen, cell-based, thallium flux, HTS (AID 488969). The following applies: HEK293 rat mGluR8, GIRK (G protein-gated inwardly rectifying potassium channel) thallium flux, FluoZin2; at 10 µM; stronger effect = higher value; submaximal glutamate (EC20) added with thallium.
Sequence of UniProt P70579 (P70579 whole entry, looked up): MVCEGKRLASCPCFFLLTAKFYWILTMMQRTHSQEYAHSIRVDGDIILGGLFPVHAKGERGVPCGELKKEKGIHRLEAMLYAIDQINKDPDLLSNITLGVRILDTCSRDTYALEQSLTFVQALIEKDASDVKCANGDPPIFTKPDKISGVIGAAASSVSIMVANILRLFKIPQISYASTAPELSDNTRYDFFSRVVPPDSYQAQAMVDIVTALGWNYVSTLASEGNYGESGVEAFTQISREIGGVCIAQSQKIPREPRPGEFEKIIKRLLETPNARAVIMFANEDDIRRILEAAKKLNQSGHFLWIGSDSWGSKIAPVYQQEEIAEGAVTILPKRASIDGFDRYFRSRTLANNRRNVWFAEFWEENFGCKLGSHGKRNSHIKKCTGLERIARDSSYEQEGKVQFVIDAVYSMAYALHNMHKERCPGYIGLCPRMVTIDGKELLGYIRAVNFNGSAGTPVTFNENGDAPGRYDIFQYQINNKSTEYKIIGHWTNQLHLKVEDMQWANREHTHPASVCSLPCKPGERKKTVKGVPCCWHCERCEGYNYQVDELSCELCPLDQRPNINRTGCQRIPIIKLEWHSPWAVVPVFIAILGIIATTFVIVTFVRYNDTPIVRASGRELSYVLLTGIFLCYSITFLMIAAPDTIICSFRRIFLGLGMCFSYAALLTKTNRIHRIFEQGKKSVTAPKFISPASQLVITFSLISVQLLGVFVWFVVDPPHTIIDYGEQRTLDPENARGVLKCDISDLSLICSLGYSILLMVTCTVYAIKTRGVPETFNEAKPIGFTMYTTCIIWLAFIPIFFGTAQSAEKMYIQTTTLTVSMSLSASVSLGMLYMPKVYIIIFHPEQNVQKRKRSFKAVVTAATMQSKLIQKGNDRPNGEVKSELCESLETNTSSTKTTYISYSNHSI
For the molecule `COc1ccccc1Oc1ccc2c(c1)C(=O)N(c1ccc(C)cc1)C2=O`, the z-score was determined as 0.146.

Consider `COc1ccc(Cc2nc(-c3cccc(C)c3)no2)cc1`, for which the z-score was 0.0701.

Take `CC(/C=C/c1ccccc1)=N/NC(=O)C(O)c1ccccc1` (stereo unspecified): the z-score is -0.14. As for `CC[n+]1c(/C=C/N(C)c2ccccc2)oc2ccc(F)cc21`, the z-score was -0.81.

Turning to `C=CCSc1nnc(-c2ccccc2NC(C)=O)c(=O)[nH]1`, the z-score is -0.905.

Turning to `O=C(Nc1ncc2c(n1)-c1ccccc1OC2)c1ccccc1Cl`, the z-score was -0.113. The result for `CCOC(=O)c1ccc(NC(=O)COc2ccc(-n3cnnn3)cc2)cc1` reads -0.00131. The result for `CC(C)c1cc[n+](-c2nc([O-])sc2C=O)cc1` reads -0.0395. The result for `O=C1CC(=C2c3ccccc3-c3ccccc32)C(=O)N1CCN1CCN(c2ccccc2)CC1` reads 0.0773; that for `C=C(C)Cn1c(SCC)nc2ccccc2c1=O`, -0.756. Regarding `O=C1Cc2ccccc2Sc2ccc(Cl)cc21`, the z-score is -0.097.

In the case of `Cc1ccc(C(=O)N2CCCC2)cc1Br`, the z-score was -0.559. With `Cc1cccc(Nc2nc3c(s2)CCCC3)c1`, the z-score worked out at 0.05.

As to `O=S(=O)(c1cccc(C(F)(F)F)c1)N1CCN(C(=S)NC2CC2)CC1`, the z-score is -0.421. Consider `Cc1cc(NC(=O)CN2CCCCCCC2)no1`, for which the z-score was -0.0461. `Cc1csc(NC(=O)CSc2ncc(-c3ccccc3)[nH]2)n1` yielded a z-score of 0.148. For `CCc1ccc(NC2=NC(C(=O)c3ccccc3)CC(=O)N2)cc1` (stereo unspecified), the z-score was -0.0127. The result for `CC(NC(=O)COC(=O)c1cn(-c2ccccc2)nc1-c1cccs1)c1ccccc1` (stereo unspecified) reads -0.567. Consider `O=C(CSc1nnc(CN2CCOCC2)n1-c1ccc(Cl)cc1)Nc1cc(Cl)ccc1O`, for which the z-score is -0.794. The result for `CN1CCN(C(=O)N2CCNC2=O)CC1` reads -0.196; that for `Clc1ccc(-c2nnc(N3CCCC3)nn2)cc1`, 0.101.

In the case of `CCCCN(CC)CCNC(=O)c1cc2c(=O)n(C)c3ccccc3c2n1C`, the z-score stood at 2.85. The result for `N#CCSc1nnc2ccc3ccccc3n12` reads -0.272.

`CCOC(=O)CCSc1nc(-c2ccccc2)cc(C(F)(F)F)n1`: the z-score was -0.219. Molecule `c1ccc2c(c1)C(=Nn1cnnc1)c1ccccc1-2` returned a z-score of 0.588. The result for `COc1ccc(C(C(=O)NC2CCCCC2)N2CCC3(CC2)OCCO3)cc1` (stereo unspecified) reads -0.185; that for `CC(=O)N1CCC2(CC1)C(C#N)=C(N)Oc1n[nH]c(CSc3ccc(C)cc3)c12`, -0.602; that for `C=CCc1ccc(OCC(O)CN2CCCCC2C)c(OC)c1` (stereo unspecified), 1.53. As to `Cc1c(C(=O)NNS(=O)(=O)c2ccccc2)sc(=S)n1C`, the z-score is -0.0997. Turning to `Cc1cc(Cl)ccc1OCCCC(=O)N1CCN(C(=O)c2ccco2)CC1`, the z-score is -1.24. To `COc1ccc(S(=O)(=O)N(C)C)cc1NC(=O)[C@H](Cc1ccccc1)N1C(=O)c2ccccc2C1=O` belongs -0.291; to `CC(=O)C1C(c2ccc(F)cc2)C2C(C)=NN=C2CC1(C)O` (stereo unspecified), -0.0401. To `O=C(COC(=O)c1ccco1)Nc1ccccc1` belongs 0.158; to `CCC1CCCCN1CCCNC(=O)c1ccc(CS(=O)(=O)Cc2ccccc2F)o1` (stereo unspecified), 0.299. To `Cc1ccc(C(=O)N/N=C2\CCSC2)cc1[N+](=O)[O-]` belongs -0.135. Consider `CCn1c(SCC(=O)Nc2nc(-c3ccccc3)cs2)nnc1-c1ccccc1O`, for which the z-score is -0.347. The result for `O=C(O)c1cc(-c2ccc(N3CCOCC3)cc2)nn1-c1ccc(F)cc1F` reads 0.0374. The result for `CCOC(=O)N1CCN(C(=O)c2cc3c(ccc4ccccc43)oc2=O)CC1` reads -0.104; that for `Cc1ccc(CS/C(Nc2ccccc2C)=C(\C#N)C(=O)NCc2ccco2)c(C)c1`, -0.133; that for `COc1cnn(-c2ccc(C)cc2)c(=O)c1SCc1ccccc1`, -0.312. The result for `CCOC(=O)c1cc(CC)sc1NC(=O)CC1Sc2ccc(C(F)(F)F)cc2NC1=O` (stereo unspecified) reads -0.0947. In the case of `Cc1ccccc1Cn1nc(C)c(NC(=O)c2noc3c2CCc2ccccc2-3)c1C`, the z-score was -0.057. To `O=P(O)(O)c1ccccc1OCc1ccccc1` belongs 0.753.

As to `Nc1ccccc1-c1nnc(SCc2ccccc2F)[nH]c1=O`, the z-score is 0.143. Take `COc1ccc(OC)c(NC(=O)c2cn(C)c(=O)c3cc(OC)c(OC)cc23)c1`: the z-score is -0.533.

Molecule `O=C(Nc1ccccc1-c1ccccc1NC(=O)c1ccco1)c1ccco1` yielded a z-score of 0.183. The molecule `Cc1ncsc1CCOC(=O)c1cccnc1` gave a z-score of 0.213. To `O=C(CC1Sc2ncnn2C1=O)Nc1ccccc1` (stereo unspecified) belongs 0.138. The result for `CCc1ccccc1NC(=S)N1CCN(c2ccccn2)CC1` reads -0.0733. As to `O=C1/C(=C\c2ccco2)SC(=S)N1Cc1ccccc1`, the z-score was -0.152.

On to `FC(F)(F)c1cc(-c2ccc3c(c2)OCO3)nc(NCc2ccco2)n1`, for which the z-score was -1.5. To `COc1cccc(C2CC(c3ccc(F)cc3)Nc3nc(N)nn32)c1` (stereo unspecified) belongs 0.0383; to `Cc1ccn(Cc2n[nH]c(=S)n2Cc2ccccc2)n1`, 0.443; to `CC(Sc1nc(-c2ccccc2)cc(C(F)(F)F)n1)C(=O)Nc1ccc2c(c1)OCO2` (stereo unspecified), -0.185. With `CCOC(=O)c1nn(-c2ccccc2F)c(C)c1C(C)=O`, the z-score is -0.0893. For `CCn1c(SCC(=O)c2ccc(NS(=O)(=O)c3ccccc3)cc2)nnc1-c1cccs1`, the z-score was -0.729. The molecule `C/C(=C\c1ccccc1)CN1CCN(c2cccc(Cl)c2)CC1` came in with a z-score of 0.0576. To `O=P(c1ccccc1)(c1ccccc1)C(O)c1ccco1` (stereo unspecified) belongs 0.0299; to `CN(c1ccccc1C(=O)N1CCOCC1)S(C)(=O)=O`, 0.0693.

Regarding `CC(=O)C1=C(C)NC(SCC(N)=O)=C(C#N)C1c1cccs1` (stereo unspecified), the z-score came out at 0.57. Take `CCCCn1nc2cc(C(=O)NCc3cc(C(F)(F)F)cc(C(F)(F)F)c3)ccc2c1OCC`: the z-score came out at 0.0782. To `Cn1c(NC(=O)c2ccccc2)c(-c2ccccn2)c(=O)c2ccccc21` belongs 1.03.

`CC1(C)SC(=S)N(/N=C/c2ccccc2)C1N(O)C(=O)Nc1ccc([N+](=O)[O-])cc1` (stereo unspecified) gave a z-score of 0.00757. The result for `CCCCNC(=O)CCCCCn1c(=O)[nH]c2cc(OC)c(OC)cc2c1=O` reads -0.54; that for `Clc1ccc(Cc2ccc(SCc3ccccc3)nn2)c(Cl)c1`, active: 3.48; that for `CCOC(=O)C1CCN(C(=O)CN(c2ccc3c(c2)OCCO3)S(C)(=O)=O)CC1`, -0.102. `CCCc1nnc(-c2cc(OC)c(OC)c(OC)c2)o1`: the z-score stood at 0.363. To `CC(C)OC(=O)c1ccc(NC(=O)C2C3CC4OC(=O)C2C4C3)cc1` (stereo unspecified) belongs 0.0627; to `CC1Cc2nc(SCC(=O)NCc3ccccc3)n(Cc3ccccc3)c(=O)c2S1` (stereo unspecified), -0.257. Regarding `O=P(CCNCc1ccco1)(c1ccccc1)c1ccccc1`, the z-score came out at 0.267.

The molecule `CCOC(=O)c1ccc(NC(=O)C2=C(C)Nc3nc(CCCO)nn3C2c2cccc(C)c2)cc1` (stereo unspecified) showed a z-score of 0.0656.

For `O=C(Nc1ccc(S(=O)(=O)N2CCCCC2)cc1)c1ccc(CN2CCc3ccccc3C2)cc1`, the z-score is -0.289. The result for `CCOC(=O)C/C(C)=N/NC(=O)CN(c1ccc(Br)cc1)S(=O)(=O)c1ccccc1` reads -0.127; that for `O=C(C1CCCN(S(=O)(=O)c2ccccc2[N+](=O)[O-])C1)N1CCN(c2ccccc2)CC1` (stereo unspecified), -0.215. On to `Cc1ccc(N2C=Nc3ccc(C)c4nc(C)cc2c34)cc1`, for which the z-score is -1.41. With `COc1ccc(NCc2cc3cc(OC)ccc3[nH]c2=O)cc1`, the z-score is -0.00516.

On to `O=C(CS(=O)c1cccc(C(F)(F)F)c1)Nc1ccc(Cl)cc1Cl` (stereo unspecified), for which the z-score is -0.315. Molecule `CCOC(=O)c1sc2nc(NC(=O)C(C)(C)C)sc2c1C` yielded a z-score of 1.4.

As to `COc1ccc(O)c(C2=Nc3ccccc3N=C(c3cccs3)C2)c1`, the z-score is -0.134.

As for `CCOC(=O)c1ccc(N2C(=O)C(O)=C(C(C)=O)C2c2ccccc2)cc1` (stereo unspecified), the z-score was active: -3.07.

`COc1ccc(CCNC(=O)CCCN2C(=O)c3ccccc3C2=O)cc1OC` gave a z-score of 0.0749. In turn, `CCc1ccccc1NC(=O)CN(C)C(=O)CSc1nnc(Nc2cccc(C)c2)s1` had a z-score of 0.0965. `O=S(=O)(Nc1ccccn1)c1ccc(Oc2ccccc2)cc1` displayed a z-score of 0.0168. To `CCC(Oc1nc2ccccc2nc1-c1ccccc1NC(C)=O)C(=O)c1ccccc1` (stereo unspecified) belongs -0.416; to `O=[N+]([O-])c1ccc(Nc2nc(N/N=C/c3cccc(F)c3)nc(N3CCCC3)n2)cc1`, -0.078; to `Cc1ccc(C)n1-c1ccc(N2CCOCC2)nc1`, -0.064.

Consider `c1csc(-c2nc3nc4ccccc4nc3n2Cc2ccc3c(c2)OCO3)c1`, for which the z-score was -0.615.

Take `Cc1c(=O)n(OCc2ccccc2F)c2ccccc2[n+]1[O-]`: the z-score was 0.527. As to `Cc1cc(C(=O)NC(=S)Nc2ccccc2N2CCCC2)ccc1[N+](=O)[O-]`, the z-score was 0.156.

`CNc1nc(-c2ccccc2)[n+](-c2ccc(C)cc2)s1`: the z-score was 0.365. The result for `N/C(=N\OC(=O)CC1CCCCC1)c1cccc([N+](=O)[O-])c1` reads -0.684. With `CCCCOC(=O)c1ccc(NC(=O)CSC2=Nc3ccccc3C3CC=NN23)cc1` (stereo unspecified), the z-score is -0.317.

In the case of `CCOc1ccccc1NC(=O)C1CCN(S(=O)(=O)c2cccc3cccnc23)CC1`, the z-score is -0.484. In the case of `CCOC(=O)N1CCC(N2C(=O)c3ccccc3C2Nc2ccc(Cl)cn2)CC1` (stereo unspecified), the z-score was -0.274.

In the case of `COc1ccc(C(=O)NNC2CC(=O)N(Cc3ccccc3)C2=O)cc1OC` (stereo unspecified), the z-score turned out to be 0.313.

As to `CCCCCc1ccc(-c2ccc(C(=O)O)cc2)nc1`, the z-score was -0.169. Regarding `Cc1ccc(-c2cc3cccc[n+]3cc2-c2ccc(C)cc2)cc1`, the z-score was -0.0109. As for `Cc1ccnc(SCCn2c(N3CCN(Cc4ccccc4)CC3)nc3c2c(=O)[nH]c(=O)n3C)n1`, the z-score is -0.393. To `Cc1nnsc1C(=O)NNS(=O)(=O)c1ccccc1` belongs -0.0677; to `CCOC(=O)C1=C(c2ccccc2)N=C2SCC(=O)N2C1c1ccc(O)c(OC)c1` (stereo unspecified), -0.15.

Consider `COCC(=O)N1CCCN(c2nc3c(C)cccc3cc2C#N)CC1`, for which the z-score was 0.765. To `COc1cc2nc(-c3cccs3)oc(=O)c2cc1OC` belongs -0.693; to `NNC(=O)c1cccc(COc2cccc(Br)c2)c1`, 0.379. With `Cc1cc(C(=O)OCCN2C(=O)c3ccccc3C2=O)c2ccccc2n1`, the z-score was -0.679. To `COc1ccc(OC)c(NC(=O)c2ccc3nc(-c4ccccc4)c(-c4ccccc4)nc3c2)c1` belongs 0.122; to `O=C(O)CCn1c(SCc2ccccc2)nc2ccccc21`, -0.0963.

As to `Cc1ccccc1-c1n[nH]c(=S)o1`, the z-score is 0.676.

Turning to `CC(C)NC(=O)CSc1nnc(-c2ccco2)n1N`, the z-score came to 0.388. `CCCCNC(=S)NNC(=O)c1ccc2c(c1)OCO2`: the z-score was -0.241. For the molecule `COc1cc(NC(=O)C/C(C)=N/NC(=O)Cc2ccc(Cl)cc2)c(OC)cc1Cl`, the z-score is -0.154. With `CCOC(=O)CCC(=O)N1CCOCCOCCN(C(=O)CCC(=O)OCC)CCOCC1`, the z-score is -0.107.
